# Reference: PubChem BioAssay AID1347071 (National Center for Advancing Translational Sciences (NCATS), 2019)
# Hit rate of the full screen: of about 410,000 compounds, about 260 (0.063%) were called active. The inconclusive results got no clear call from the source; some entries with a clear call stand among them for comparison. Calls follow the shape of the dose curve; as a rule, active = well fitted activation curve with a large enough effect; inconclusive = small, poorly fitted or top-dose-only effect; inactive = no such curve, though single readings can be large or run the other way. Potencies of inconclusive entries are left out as doubtful fits.
# Experiment: qHTS for compounds that reverse cellular toxicity of Amyloid beta (A-beta) peptide in yeast: Primary Screen; also: nearly all actives have a fitted effect of over 55% in size
# Details: yeast expressing A-beta42, growth rescue, OD600, 48 h; growth rescue: at 46.1 µM (top of the series), 0% DMSO, 100% iron-clioquinol control
# Outline: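 Yeast A-beta toxicity model in growth medium with pinned compounds, 48 h at 30 C; growth read as absorbance at 600 nm. Normalized to FeCl3/clioquinol equimolar mix (positive) and DMSO (negative).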
# Potency is read from the fitted curve at half-maximal effect; tags tell the direction and shape of the fitted curve.
Structure (SMILES),Potency,growth rescue
S=c1[nH]nc(COc2ccc(Cl)cc2)n1Cc1ccco1,active: 12.6 µM,
O=C(COCc1cc(-c2ccc(F)cc2)on1)Nc1cc(Cl)cc(Cl)c1,,inactive: -9.65%
COc1cc(NC(=O)COC(=O)CC2CC3CCC2C3)cc(OC)c1 (stereo not drawn),"inconclusive [activator, single point]",
NS(=O)(=O)c1ccc(CCNC/C=C/c2ccccc2)cc1,,inactive: -20.5%
CCc1ccc(C2=CC(c3cccc(OC)c3OC)n3c(nc4ccccc43)N2)cc1 (stereo not drawn),,inactive: 18.8%
CCOc1cc(CNC(=O)c2cc(-c3ccc(Cl)s3)nc3ccccc23)ccc1OC,,inactive: -10.6%
COc1ccc(/C=C2\SC(=O)N(CCCC(=O)Nc3cc(Cl)ccc3C(=O)O)C2=O)cc1,,inactive: -44.7%
NC(=O)C(c1ccccc1)C1CCCCC1 (stereo not drawn),"inconclusive [activator, partial curve]",
O=c1[nH]c(=S)[nH]c2sc3c(c12)CCCCCC3,"inconclusive [activator, partial curve, poor fit]",
O=C(Nc1nnc(-c2ccc3c(c2)CCCC3)o1)C1COc2ccccc2O1 (stereo not drawn),"inconclusive [activator, partial curve, poor fit]",
COc1cc(/C=C2\SC(=Nc3ccccc3OC)NC2=O)ccc1O,,inactive: -2.19%
Cc1ccc(C(=O)NC(=S)NCc2ccccc2)cc1,"inconclusive [activator, single point]",
N#Cc1c(Cl)cccc1Oc1ccc(S(=O)(=O)Nc2ccccc2)cc1,"inconclusive [activator, full curve]",
CCc1ccc(/C=N/n2c(COc3ccccc3)n[nH]c2=S)cc1,"inconclusive [activator, single point]",
Cc1cccc(C)c1NC(=O)N1CCN(c2nc3ccccc3s2)CC1,,inactive: 5.11%
O=C(CSCc1ccccc1Br)NC1CC1,"inconclusive [activator, full curve]",
COc1ccc(NC(=S)Nc2cccc(C)n2)cc1,"inconclusive [activator, full curve]",
CC(NC(=O)c1cccc(Cn2cc([N+](=O)[O-])cn2)c1)c1ccc(C(C)(C)C)cc1 (stereo not drawn),"inconclusive [activator, partial curve]",
Cc1ccc(N2CC(=O)Nc3c(oc4nc(-c5ccccc5)cc(C)c34)C2=O)cc1,"inconclusive [activator, single point]",
COc1ccc(OC)c(NS(=O)(=O)c2ccc(Cl)s2)c1,"inconclusive [activator, single point]",
COc1ccc(NC(=O)C(c2ccc(OC)cc2)N(C)C(=O)Cc2cccs2)cc1 (stereo not drawn),inactive,
COc1ccccc1-c1cc(C(=O)Nc2c(C)nn(Cc3ccc(Cl)cc3)c2C)no1,"inconclusive [activator, single point]",
CCCCOC(=O)c1ccc(NC(=O)C2(c3cccs3)CCOCC2)cc1,"inconclusive [activator, single point]",

Structure (SMILES),Potency,growth rescue
CC(SC1=NCCN1S(=O)(=O)c1ccc(F)cc1)c1ccccc1 (stereo not drawn),"inconclusive [activator, partial curve, poor fit]",
COC(=O)c1ccccc1NC(=S)N1CCN(c2ccccc2)CC1,"inconclusive [activator, single point]",
COc1ccc(C)cc1N=Nc1ccc(O)c2ncccc12,"inconclusive [activator, single point]",
CCNC(=S)N1CCN(c2cccc(C(F)(F)F)c2)CC1,"inconclusive [activator, single point]",
CCn1c(=O)cc(SCC(=O)N2CCN(c3ccccn3)CC2)c2ccccc21,"inconclusive [activator, full curve, poor fit]",
CCOc1ccc(-c2nc(Cn3c(=O)cc(-c4ccccc4)c4c(C)nn(C)c43)c(C)o2)cc1OC,,inactive: -16.7%
C(=NN=C(NN=Cc1cccs1)NN=Cc1cccs1)c1cccs1,"inconclusive [activator, single point]",
CC1CCCC/C1=N\NC(=S)NCCc1ccccc1 (stereo not drawn),"inconclusive [activator, single point]",
COc1cccc(OCc2nc3ccccc3n2Cc2ccccc2)c1,"inconclusive [activator, partial curve, poor fit]",
Cc1cc(Cl)ccc1NC(=S)NCCc1ccc(Cl)cc1,"inconclusive [activator, partial curve, poor fit]",
O=C(CCc1ccccc1)Nc1ccc(F)c([N+](=O)[O-])c1,"inconclusive [activator, partial curve, poor fit]",
Cc1cccc(NC(=S)NC2CCSc3ccccc32)c1 (stereo not drawn),"inconclusive [activator, partial curve, poor fit]",
COc1ccc(C(=O)NNC(=O)c2ccc3ccccc3n2)cc1,"inconclusive [activator, single point]",
CCCCn1cnc2cc(NC(=O)c3cc(OC)c(OC)c(OC)c3)ccc21,,inactive: 3.43%
COc1cccc(-c2noc(CCC(=O)NC3CCCC3)n2)c1,,inactive: -5.98%
CCN1CCN(C(c2ccc(Cl)cc2)c2c(O)cc(C)n(CCOC)c2=O)CC1 (stereo not drawn),"inconclusive [activator, partial curve]",
Cc1cccc(NC(=O)COC(=O)CCc2c[nH]c3ccccc23)c1C,"inconclusive [activator, single point]",
NS(=O)(=O)c1ccc(Sc2ccc3c(c2)CCC3)nc1,,inactive: -13.5%
CCOC(=O)c1sc(NNC(=O)c2ccc(F)cc2)nc1C,"inconclusive [activator, single point]",
COc1ccc(-c2csc3[nH]c(=S)n(-c4ccccc4)c(=O)c23)cc1OC,"inconclusive [activator, single point]",
COc1cccc(C(Nc2ccccc2)c2ccc3ccc(C)nc3c2O)c1 (stereo not drawn),"inconclusive [activator, single point]",
S=C(Nc1cccc(Cl)c1)Nc1ccccc1Oc1ccccc1,"inconclusive [activator, single point]",
CCOC(=O)C1(Cc2ccc(Cl)cc2)CCN(C(=O)c2ccoc2)CC1,"inconclusive [activator, single point]",

Structure (SMILES),Potency,growth rescue
CC(OC(=O)Cc1cccc(C(F)(F)F)c1)C(=O)Nc1ccc(Cl)cn1 (stereo not drawn),active: 5.01 µM,
COc1cc(OC)cc(C(=O)NC(=S)Nc2nc(-c3cc4ccccc4o3)cs2)c1,"inconclusive [activator, single point]",
Cc1ccc(NC(=O)N2CCc3ccccc3C2)cc1C,"inconclusive [activator, single point]",
C/C(=N\N(Cc1ccccc1)c1ccccc1)c1cccnc1,"inconclusive [activator, full curve, poor fit]",
O=C(NNc1ccc([N+](=O)[O-])cc1)C1CC1c1ccccc1 (stereo not drawn),"inconclusive [activator, single point]",
CCNC(=O)NC1(C(=O)Nc2ccc3c(c2)OCCO3)CCCCC1,"inconclusive [activator, partial curve, poor fit]",
COc1ccc(CCNC(=O)c2cc3cccc4c3n2CC(C)S4)c(OC)c1OC (stereo not drawn),,inactive: -11.1%
OC(c1ccc(-c2ccccc2)cc1)c1ncc(-c2ccccc2)[nH]1 (stereo not drawn),"inconclusive [activator, partial curve]",
COc1ccc(NC(=S)NC(C)Cc2cccs2)cc1 (stereo not drawn),"inconclusive [activator, single point]",
Cc1ccc(CNC(=S)NC2CCCCC2)cc1,"inconclusive [activator, partial curve, poor fit]",
COc1cnc(-c2ccccn2)nc1Sc1ccc(Cl)cc1,"inconclusive [activator, full curve, poor fit]",
Cn1cc(CN2CCN(c3ccc(Cl)cn3)CC2)c(-c2ccccc2F)n1,"inconclusive [activator, single point]",
CCOc1ccc(C2/C(=C(\O)c3ccc4c(c3)OCCO4)C(=O)C(=O)N2CCCN2CCOCC2)cc1 (stereo not drawn),"inconclusive [activator, single point]",
C/C(=N/NC(N)=S)c1ccc(Br)s1,"inconclusive [activator, single point]",
O=C(CSc1cccc[n+]1[O-])c1ccccc1Br,"inconclusive [activator, single point]",
O=C(Nc1ccc(C(=O)O)cc1)/C(=C\c1ccc2c(c1)OCO2)NC(=O)c1ccccc1,"inconclusive [activator, single point]",
Cc1ccc(/C=N/n2c(C3CCCCC3)n[nH]c2=S)cc1,"inconclusive [activator, partial curve, poor fit]",
Cc1ccc(C(=O)NS(=O)(=O)c2ccccc2)cc1,"inconclusive [activator, single point]",
CC(=O)Nc1ccc(S(=O)(=O)N(C)CC(=O)OCC(=O)N2CCc3ccccc32)cc1,"inconclusive [activator, single point]",
O=[N+]([O-])c1cc(-c2nc(-c3cccnc3)no2)ccc1NCc1ccccc1,,inactive: -10.9%
O=C(CCN1CCCCCC1)Nc1cccc(F)c1,"inconclusive [activator, partial curve, poor fit]",
Fc1ccccc1NC(=S)NCc1ccccc1,"inconclusive [activator, single point]",
